Here are results for 20 compounds from PubChem BioAssay (EPA / NIEHS).

Where “and” joins values, the source holds several entries; their conditions need not be identical. Identical values can stand only once. For part of these data: This list holds what a sample rich in hits left over. Records with an inconclusive call do not appear. Only a part is listed here, and it is no random draw. Calls of active or inactive are those of the source. Rule for the calls, unless noted: active = hit-call score of the fitted dose curve at least 0.9, where 1 is the maximum; inconclusive = response in the unintended direction; inactive = score below 0.9.

Read-out in the first assay: Human Leukocyte Antigen - DR isotype (HLADR), HLA-DRA (gene 3122)
Description: BSK_3C_HLADR: BioMAP Diversity Plus: 3C Assay for Human Leukocyte Antigen - DR isotype (HLADR) Biomarker Activity (AID 2283019; active = hit-call score of the fitted dose curve at least 0.9, where 1 is the maximum; inactive = score below 0.9). The conditions noted are these: actives raise or lower the signal; primary human endothelial cells (HUVEC). The method in brief:
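Endothelial cells from human umbilical vein are treated with test chemical; after 24 h, HLA-DR levels are measured by ELISA. Data are fitted in both directions using DMSO as the baseline.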
For the compound `Cc1c(C)c2c(c(C)c1O)CCC(C)(COc1ccc(CC3SC(=O)NC3=O)cc1)O2` (configuration not stated), the AC50 is active: 29 µM.

With `Cc1ccc2oc(CN(Cc3ccccc3)C(=O)Nc3c(F)cc(F)cc3F)c(-c3ccc(Cl)cc3)c2c1`, the half-maximal activity concentration (AC50) was active: 25.5 µM.

For `O=c1c(O)c(-c2ccc(O)c(O)c2)oc2cc(O)cc(O)c12`, the AC50 is active: 13.3 µM.

Read-out in a further assay: Monokine induced gamma interferon (MIG), CXCL9 (gene 4283)
Description: BSK_3C_MIG: BioMAP Diversity Plus: 3C Assay for Monokine induced gamma interferon (MIG) Biomarker Activity (AID 2283021; active = hit-call score of the fitted dose curve at least 0.9, where 1 is the maximum; inactive = score below 0.9;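 for AC50: MIG protein level measured by immunoassay in the treated endothelial cultures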). Conditions: actives raise or lower the signal; primary human endothelial cells (HUVEC). The procedure:
BSK_3C is a cell-based, multiplexed-readout assay that uses umbilical vein endothelium, a human vascular primary cell, with measurements taken at 24 hours after chemical dosing in a 96-well plate.BSK_3C_MIG is an assay component measured in the BSK_3C assay. It measures MIG antibody related to regulation of gene expression using ELISA technology.Data from the assay component BSK_3C_MIG was analyzed into 1 assay endpoint. This assay endpoint, BSK_3C_MIG, was analyzed with bidirectional fitting relative to DMSO as the negative control and baseline of activity. Using a type of binding reporter, gain or loss-of-signal activity can be used to understand changes in the signaling as they relate to the gene CXCL9. Furthermore, this assay endpoint can be referred to as a primary readout, because this assay has produced multiple assay endpoints where this one serves a signaling function. To generalize the intended target to other relatable targets, this assay endpoint is annotated to the cytokine intended target family, where the subfamily is chemotactic factor.
(§1) The levels of cell surface (or secreted, indicated by the prefix "s") biomarker endpoints were measured by ELISA. Overt cytotoxicity to cells in confluent adherent cultures (all systems other than the BT system) was assessed by measuring total protein levels using sulforhodamine B (SRB) staining in parallel cultures at the time of biomarker measurements, indicated as SRB endpoints. For proliferation assays for adherent cell types, individual cell types are cultured at sub-confluence and relative cell numbers quantified by SRB staining at time points optimized for each system (48 h: 3C and CASM3C systems; 72 h: BT and HDF3CGF systems; 96 h: SAg system). SRB was performed by staining cells with 0.1% SRB after fixation with 10% TCA and reading wells at 560 nm.Viability and proliferation of PBMC (T cells) was quantified by Alamar Blue reduction for the SAg and BT systems. For PBMC viability (referred to as PBMC Cytotoxicity within the assay endpoint names), cells were plated (75,000/well in a 96-well plate) and then chemical samples added for 1 h before addition of activators, SEB and TSST-1 (20 ng/mL final concentration each). Cells were incubated for 90 h. Then, Alamar Blue (20 uL/well) (Invitrogen, Cat DAL1100) was added for 6 h, and the plates were read with a fluorescence microplate reader at 546/580 nm (excitation/emission). For PBMC proliferation, cells were plated and activated as above but incubated for only 16 h prior to addition of Alamar Blue. Plates were read after 6 h.
Turning to `c1ccc(CCc2ccccc2)cc1`, the outcome was inactive.

Turning to `CCN(CC)CCNc1ccc(CNC=O)c2sc3ccc(OC)cc3c(=O)c12`, the AC50 is active: 35.7 µM.

`Oc1c(Cl)cc(Cl)cc1Sc1cc(Cl)cc(Cl)c1O`: the AC50 was active: 18.2 µM and active: 34.5 µM.

Another assay addresses human Vitamin D Receptor (VDR), VDR (gene 7421) (UniProt P11473). Description: ATG_VDR_TRANS: Attagene TRANS-FACTORIAL HepG2 Assay for human Vitamin D Receptor (VDR) (AID 2283022).
UniProt P11473, sequence (P11473 whole entry, looked up): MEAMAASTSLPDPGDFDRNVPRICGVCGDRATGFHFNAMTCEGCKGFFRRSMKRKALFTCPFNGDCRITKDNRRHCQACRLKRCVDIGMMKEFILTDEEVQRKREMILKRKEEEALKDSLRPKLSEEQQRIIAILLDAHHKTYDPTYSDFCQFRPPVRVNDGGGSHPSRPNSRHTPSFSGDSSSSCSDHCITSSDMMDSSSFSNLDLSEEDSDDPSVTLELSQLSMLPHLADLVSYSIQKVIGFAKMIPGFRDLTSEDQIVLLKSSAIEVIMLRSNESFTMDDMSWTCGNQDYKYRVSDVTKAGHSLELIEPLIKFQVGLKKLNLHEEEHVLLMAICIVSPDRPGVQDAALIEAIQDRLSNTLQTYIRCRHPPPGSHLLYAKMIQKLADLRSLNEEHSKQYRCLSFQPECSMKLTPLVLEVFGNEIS
Conditions: not given
In a few lines:
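Fluorescence of labelled reporter cDNA fragments, resolved by capillary electrophoresis, gives mRNA induction after 24 h treatment of HepG2 cells carrying transfected Gal4-fusion reporter units. Activity is fitted in the positive direction with DMSO as baseline.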
`NCCNCCN`: the compound was called inactive.

As to `CCCCCCCCCCCCOCCOS(=O)(=O)O`, the call was inactive.

For `CC(C)c1ccc2c(C(C)C)cc(C(C)C)c(S(=O)(=O)O)c2c1`, the outcome was inactive.

With `C=C[C@](C)(O)CC[C@@H]1[C@@]2(C)CCCC(C)(C)[C@@H]2CC[C@@]1(C)O`, the compound was classed as inactive.

For `O=C(C(=O)c1ccccc1)c1ccccc1`, the compound was classed as inactive.

On to `CC(=O)[C@H]1CC[C@H]2[C@@H]3CCC4=CC(=O)CC[C@]4(C)[C@H]3CC[C@]12C`, for which the outcome was inactive.

For the compound `O=P(OC(CCl)CCl)(OC(CCl)CCl)OC(CCl)CCl`, the result was inactive.

Consider `Clc1cc(Cl)c2c(c1)N=C1CCCCCN1C2`, for which the compound was classed as inactive.

Take `C=C(C)C(=O)OCC1CCCO1` (configuration not stated): the result was inactive.

For the compound `CN(C)c1ccc(C(c2ccccc2)c2ccc(N(C)C)cc2)cc1`, the compound was classed as inactive.

Read-out in a further assay: not listed separately
The experiment in a line: BSK_3C_SRB: Viability Assessment in the BioMAP Diversity Plus: 3C Assay (AID 2283023; active = hit-call score of the fitted dose curve at least 0.9, where 1 is the maximum; inactive = score below 0.9;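 note: cells read 24 h after compound dosing; fitted both ways against DMSO so a hit may be signal rise or drop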). Conditions: primary human endothelial cells (HUVEC). The procedure:
BSK_3C is a cell-based, multiplexed-readout assay that uses umbilical vein endothelium, a human vascular primary cell, with measurements taken at 24 hours after chemical dosing in a 96-well plate.BSK_3C_SRB is an assay component measured in the BSK_3C assay. It measures 0.1% sulforhodamine related to cell death using Sulforhodamine staining technology.Data from the assay component BSK_3C_SRB was analyzed into 1 assay endpoint. This assay endpoint, BSK_3C_SRB, was analyzed with bidirectional fitting relative to DMSO as the negative control and baseline of activity. Using a type of viability reporter, gain or loss-of-signal activity can be used to understand changes in the signaling. Furthermore, this assay endpoint can be referred to as a primary readout, because this assay has produced multiple assay endpoints where this one serves a signaling function. To generalize the intended target to other relatable targets, this assay endpoint is annotated to the cell morphology intended target family, where the subfamily is cell conformation.
as §1
In the case of `NCCNCCN`, the outcome was inactive.

In the case of `NC(=O)Cn1c(=O)cc(CCN2CCN(c3nccc4sccc34)CC2)c2ccc(F)cc21`, the outcome was inactive.

As for `CCCCCCCCCCCC[N+](C)(C)C`, the AC50 is active: 22.5 µM.

Test system in a further assay: not listed separately
Description: ACEA_AR_agonist_AUC_viability: ACEA Biosciences xCELLigence Real-Time Cell Analysis on Androgen Receptor Agonism for Viability (AID 2283775).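 For AC50: viability read 80 hours after compound addition.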
Conditions: not given
The method in brief:
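Real-time impedance tracking of 22Rv1 growth, readings every 5 min for 5 h then hourly; area-under-curve viability endpoint at 80 hours, relative to DMSO. Compounds at eight concentrations, 1:4 steps, top 100 uM, n = 2.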
Regarding `NCCNCCN`, the compound was classed as inactive.

Consider `CCCCCCCCCCCCOCCOS(=O)(=O)O`, for which the result was inactive.

As to `O=C(c1ccccc1)c1ccc(O)cc1O`, the result was inactive.

Consider `CCCCCCCCCCCC[N+](C)(C)C`, for which the AC50 is active: 12.1 µM.

Test system in another assay: not listed separately
The experiment in a line: ACEA_AR_antagonist_AUC_viability: ACEA Biosciences xCELLigence Real-Time Cell Analysis on Androgen Receptor Antagonism for Viability (AID 2283776).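 Note: hits lower the growth signal relative to DMSO meaning cytotoxicity.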
Conditions: not given
In a few lines:
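22Rv1 human prostate cancer cells were seeded on electrode plates, monitored overnight, then exposed to eight 1:4 dilutions from 100 uM final. Impedance-based growth kinetics at 80 h gave an AUC viability endpoint normalized to DMSO.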
Regarding `NCCNCCN`, the result was inactive.

With `CCCCCCCCCCCC`, the call was inactive.

On to `O=C(c1ccccc1)c1ccc(O)cc1O`, for which the outcome was inactive.

For `O=c1c(O)c(-c2ccc(O)c(O)c2)oc2cc(O)cc(O)c12`, the half-maximal activity concentration (AC50) was active: 12.8 µM.
